Whole data set: some 33,000 sequences, median “E-score (-0.5 to 0.5)” near -0.035, cut for the highest 2% near 0.35. Some of the results follow.
Each sequence was assayed against T1, Pdr3 (UniProt P33200) (assay: PBM E-score (8-mer binding enrichment) (E-score (-0.5 to 0.5)); higher = stronger / more preferred TF binding; most listed sequences are background and not binding sites). Details: protein concentration: 200 nM; construct: GST-full length.
T1 sequence: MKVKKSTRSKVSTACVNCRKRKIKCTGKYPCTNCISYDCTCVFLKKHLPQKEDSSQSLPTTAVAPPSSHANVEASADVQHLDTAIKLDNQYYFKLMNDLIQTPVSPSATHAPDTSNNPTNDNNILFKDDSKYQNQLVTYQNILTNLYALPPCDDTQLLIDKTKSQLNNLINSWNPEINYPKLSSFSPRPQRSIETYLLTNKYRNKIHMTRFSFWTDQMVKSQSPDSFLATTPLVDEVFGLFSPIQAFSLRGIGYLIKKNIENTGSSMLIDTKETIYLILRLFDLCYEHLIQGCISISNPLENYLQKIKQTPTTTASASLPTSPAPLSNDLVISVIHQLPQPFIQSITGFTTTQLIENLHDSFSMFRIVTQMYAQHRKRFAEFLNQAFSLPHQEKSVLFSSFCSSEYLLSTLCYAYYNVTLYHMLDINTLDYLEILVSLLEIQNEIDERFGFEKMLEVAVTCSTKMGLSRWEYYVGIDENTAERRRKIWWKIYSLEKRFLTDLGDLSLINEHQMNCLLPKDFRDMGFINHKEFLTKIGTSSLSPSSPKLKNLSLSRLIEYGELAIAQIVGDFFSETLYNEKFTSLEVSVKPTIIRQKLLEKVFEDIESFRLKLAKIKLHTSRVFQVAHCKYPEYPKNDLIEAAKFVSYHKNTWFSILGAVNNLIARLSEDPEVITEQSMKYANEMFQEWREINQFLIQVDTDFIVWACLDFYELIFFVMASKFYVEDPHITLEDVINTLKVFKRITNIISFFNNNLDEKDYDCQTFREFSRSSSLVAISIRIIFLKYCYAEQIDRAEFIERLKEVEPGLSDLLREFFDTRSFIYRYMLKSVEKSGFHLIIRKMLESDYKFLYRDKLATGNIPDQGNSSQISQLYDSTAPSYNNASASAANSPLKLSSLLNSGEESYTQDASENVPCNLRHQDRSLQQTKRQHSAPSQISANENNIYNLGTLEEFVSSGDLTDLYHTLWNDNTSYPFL
Procedure, shortened: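 Universal all-10-mer Agilent arrays, double-stranded by primer extension on fresh or once-stripped slides, were probed with about 100-200 nM GST-tagged yeast transcription factors made by PURExpress. Fluorescent anti-GST detected bound protein, and masliner normalised the scans. E-scores from the Universal PBM Analysis Suite were given to each ungapped eight-base word pooled with its reverse complement.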

Going from CGGATTAC to GGCTTTCA, the “PBM E-score” value falls from 0.18 to -0.0234.

Going from GTTTCACA to CGTTGGAG, the “PBM E-score” value falls from -0.114 to -0.136.

Compared with TCTCTACA, GCGGTCCC is higher in “PBM E-score” value: -0.249 for the first, 0.121 for the second.

Compared with TTAGGGAA, CAGAGAAC is lower in “PBM E-score” value: -0.152 for the first, -0.202 for the second.

First: AGGCACGA
Second: ATGAAAGC
The “PBM E-score” value of the first is lower: -0.168 for the first, 0.0331 for the second.

Going from CCTCGATA to AGTCTGGA, the “PBM E-score” value falls from 0.202 to -0.154.

Going from GCTTCCTA to AACAAACG, the “PBM E-score” value rises from -0.205 to -0.0956.

Compared with CGCAACGC, GCGCACAC is lower in “PBM E-score” value: 0.158 for the first, 0.128 for the second.

Going from CAGATTTC to ACAGTTTA, the “PBM E-score” value rises from -0.124 to -0.11.

First: CAAGTCAC
Second: GAGCACCC
The “PBM E-score” value of the first is lower: -0.0661 for the first, 0.0661 for the second.

Going from GGGGATAC to CAAAATAA, the “PBM E-score” value falls from 0.0434 to 0.0399.

Compared with ACGTCCTC, AGATACGC is higher in “PBM E-score” value: -0.233 for the first, -0.0323 for the second.

First: CACATATC
Second: ATCTGAGA
The “PBM E-score” value of the first is higher: -0.0189 for the first, -0.119 for the second.

First: GATGACCA
Second: ATTCTACC
The “PBM E-score” value of the first is higher: -0.0674 for the first, -0.0786 for the second.

First: ATACAAGC
Second: CGACTGGC
The “PBM E-score” value of the first is lower: 0.0244 for the first, 0.0332 for the second.

Going from ACTTTATA to ACATGTGA, the “PBM E-score” value falls from 0.00216 to -0.172.

First: CAGGGTGG
Second: CTGTTGAC
The “PBM E-score” value of the first is lower: -0.247 for the first, -0.162 for the second.

First: GTCAGGGA
Second: AGCATAAC
The “PBM E-score” value of the first is higher: -0.0697 for the first, -0.159 for the second.

Compared with GCTCGGTA, TACGGATA is higher in “PBM E-score” value: 0.123 for the first, 0.224 for the second.

Going from ATTGACTC to ATGTTCGA, the “PBM E-score” value rises from -0.0509 to -0.00896.

First: CTTTGTCA
Second: ACCGCAAG
The “PBM E-score” value of the first is lower: -0.0902 for the first, 0.0785 for the second.

Going from GCTTGAAA to GCGCTTCC, the “PBM E-score” value rises from -0.147 to 0.265.

First: ATAACGTC
Second: GGCAGACA
The “PBM E-score” value of the first is lower: -0.0105 for the first, 0.0451 for the second.

Going from GCCCCAAA to TCGCTTCA, the “PBM E-score” value rises from -0.204 to -0.114.

First: AATACACC
Second: CGACCTAG
The “PBM E-score” value of the first is higher: 0.0523 for the first, 0.0405 for the second.

Compared with GATCATAC, AGGAATGG is lower in “PBM E-score” value: -0.0477 for the first, -0.0494 for the second.

Compared with AGACTTCC, CGACGTAC is lower in “PBM E-score” value: 0.0461 for the first, 0.0357 for the second.

Going from CGTAGACG to CGCCCTAC, the “PBM E-score” value falls from -0.0298 to -0.181.

Going from AACAACTC to GCGTGTAA, the “PBM E-score” value falls from -0.144 to -0.198.

Compared with ACGGTCCG, GGGCACAA is lower in “PBM E-score” value: 0.308 for the first, -0.0569 for the second.

First: GTCGAAGA
Second: CGTGCAAA
The “PBM E-score” value of the first is higher: -0.0177 for the first, -0.153 for the second.

First: GGCAAACA
Second: CCAGATCC
The “PBM E-score” value of the first is higher: 0.0626 for the first, -0.0605 for the second.

First: ATATGAGA
Second: CCCATTAG
The “PBM E-score” value of the first is higher: 0.0704 for the first, -0.374 for the second.

First: ACTAATTG
Second: GAACGTGC
The “PBM E-score” value of the first is lower: 0.0304 for the first, 0.0634 for the second.

Compared with ACGTCGAG, GAGAGTGC is lower in “PBM E-score” value: 0.0168 for the first, -0.339 for the second.

First: ACCGTGTA
Second: CAATCCAC
The “PBM E-score” value of the first is lower: -0.0766 for the first, -0.0656 for the second.

First: TAAGCTGA
Second: AACCGGTA
The “PBM E-score” value of the first is lower: -0.00177 for the first, 0.144 for the second.

Going from TAACCTAA to CTGAAGAA, the “PBM E-score” value rises from -0.148 to -0.0648.

Going from CTCACCAC to GAATTGGC, the “PBM E-score” value rises from -0.106 to -0.0131.

Compared with ATAAACAT, GTATGCAA is lower in “PBM E-score” value: 0.11 for the first, -0.0515 for the second.

Going from CTCTAGAA to GGGAGAGA, the “PBM E-score” value falls from -0.226 to -0.249.

Compared with CCTTGGGC, AGCTTTAG is lower in “PBM E-score” value: -0.113 for the first, -0.267 for the second.

First: TCATATAA
Second: TAAATTCA
The “PBM E-score” value of the first is higher: 0.0554 for the first, -0.186 for the second.

Going from CCACCAGA to GTACATCA, the “PBM E-score” value rises from -0.0864 to 0.0697.

Going from ATCGAATA to AGCTGCCT, the “PBM E-score” value rises from -0.219 to -0.202.

Going from AAGGCGAG to GTTGAAAA, the “PBM E-score” value rises from -0.147 to -0.0805.

Compared with ATGGCCAC, TAAGAGGA is higher in “PBM E-score” value: -0.293 for the first, -0.138 for the second.

Compared with ATGAAAAT, CAGTTCAG is lower in “PBM E-score” value: 0.112 for the first, -0.0523 for the second.

Compared with AAAATTAC, CTGTAAGA is lower in “PBM E-score” value: -0.16 for the first, -0.182 for the second.

Compared with CCGTCTAA, AGTGACTA is lower in “PBM E-score” value: 0.262 for the first, -0.132 for the second.

First: ACAGATGC
Second: AACCGACT
The “PBM E-score” value of the first is lower: -0.121 for the first, -0.0007 for the second.

Going from CGACTGCA to AACAAACC, the “PBM E-score” value rises from -0.0585 to 0.032.

Compared with CGCCGCGA, GTTAACTA is lower in “PBM E-score” value: 0.224 for the first, 0.106 for the second.

First: CGTCCCAA
Second: CTCACCCC
The “PBM E-score” value of the first is lower: 0.0218 for the first, 0.0597 for the second.

Going from CATCTCCC to AGGCCATG, the “PBM E-score” value falls from 0.155 to -0.167.

Going from GCAAAAAC to CTCAAGAC, the “PBM E-score” value rises from -0.138 to -0.108.

Going from ACCTATAG to TCAGTAAA, the “PBM E-score” value rises from -0.317 to -0.00839.

Going from CCTCATAC to AGTAACAC, the “PBM E-score” value rises from -0.0938 to 0.064.

First: CTCGGGAA
Second: CTAGCGCA
The “PBM E-score” value of the first is higher: 0.301 for the first, -0.251 for the second.

First: CCAGACTA
Second: TACATGTA
The “PBM E-score” value of the first is lower: -0.118 for the first, -0.0105 for the second.

First: CCCCCCAC
Second: CCAATTAG
The “PBM E-score” value of the first is lower: -0.324 for the first, -0.0252 for the second.

Compared with ATGGGACC, CAGGGAGC is lower in “PBM E-score” value: -0.0251 for the first, -0.14 for the second.

Going from CATAACTA to GAGGAGAA, the “PBM E-score” value falls from -0.115 to -0.226.

Going from CGGGTACG to CTTAGCCA, the “PBM E-score” value falls from 0.145 to -0.107.

Compared with CTCAGTGC, CAGAGCTA is lower in “PBM E-score” value: 0.0149 for the first, -0.327 for the second.

Compared with AAAAGATT, CGCACAAG is lower in “PBM E-score” value: 0.0508 for the first, 0.0112 for the second.

First: CAATACAA
Second: GGTGCCTA
The “PBM E-score” value of the first is higher: 0.0666 for the first, -0.147 for the second.

Compared with CACATTTC, TAATAGTA is lower in “PBM E-score” value: 0.136 for the first, 0.113 for the second.

First: ATCGGAAG
Second: CCTAGGAG
The “PBM E-score” value of the first is higher: 0.359 for the first, -0.0519 for the second.

Compared with GGGCGGAA, AACGGACT is lower in “PBM E-score” value: 0.414 for the first, 0.0833 for the second.

Going from ACGGCACA to ACATCCAA, the “PBM E-score” value falls from -0.0224 to -0.0543.

First: GTCCTCCA
Second: GTTTATTA
The “PBM E-score” value of the first is lower: -0.0693 for the first, 0.141 for the second.

First: CCCTAAAA
Second: GTCGGCCA
The “PBM E-score” value of the first is lower: -0.187 for the first, -0.0997 for the second.

First: ACCAAGCG
Second: CCGATCAA
The “PBM E-score” value of the first is lower: -0.0407 for the first, 0.13 for the second.

Compared with GGATGAAC, GAAGCAGC is lower in “PBM E-score” value: 0.0959 for the first, 0.0452 for the second.

Going from AGGTAGCC to CATCGGCC, the “PBM E-score” value rises from -0.113 to 0.202.

Compared with CATATTGC, ACAGCCTG is lower in “PBM E-score” value: -0.113 for the first, -0.311 for the second.

Going from CGGCACAC to CATGATGG, the “PBM E-score” value falls from 0.239 to -0.219.

Going from GGTAGCAA to AGTTAGAC, the “PBM E-score” value rises from -0.207 to -0.129.

Going from ATAGATCA to AGTCAGAA, the “PBM E-score” value falls from 0.0621 to -0.0999.

First: CTGGCAAC
Second: TATCTAGA
The “PBM E-score” value of the first is higher: -0.0404 for the first, -0.247 for the second.

First: ATTGTTGA
Second: AAGTAGTG
The “PBM E-score” value of the first is higher: -0.0145 for the first, -0.0433 for the second.

First: ATAACACA
Second: ATGCAAGC
The “PBM E-score” value of the first is higher: -0.0424 for the first, -0.0447 for the second.

Compared with CCGGATGC, AAGGAGAA is lower in “PBM E-score” value: 0.28 for the first, -0.086 for the second.

Compared with ATACTCTG, ATAGTTGA is lower in “PBM E-score” value: -0.0296 for the first, -0.0828 for the second.

First: ACCCAACA
Second: CTTGATTC
The “PBM E-score” value of the first is lower: -0.0419 for the first, 0.0867 for the second.
